Read counts are not given, so values of variants with three or more changes are uncertain.

To fix the notation:
B1: LINE1-full (parent)
chain: UACGUAGGUGGUUUUCCCCUGAUAGUGCUAAGGGGGCCUGGAAGUUUGGACUGGGCAGAGCUCAACACAGCGUGGCAAAGUGGCUGUGGCUAGACUGCCUCUCUGGAUUCCUCGUCACUCAGCAGGGCAUCUCUGAGAGAAAUGCC

Variants of B1 are the subject of the data set. The experiment in a line: self-cleavage, relative activity (ratio to wild type); higher = more cleavage; in vitro, sequencing; the parent is a self-cleaving ribozyme.
Consider U20C U52C U115A, for which the self-cleavage came to 0.3.

In the case of U20C U62C U91A C128U, the self-cleavage was determined as 0.08.

Turning to U20A A50U U134C, the self-cleavage came to 1.26.

Consider U20A A43G U104C C131U G137A, for which the self-cleavage turned out to be 1.51.

With U20G C90U U112A, the self-cleavage amounted to 0.17.

Regarding U20A U81A U102C C118G, the self-cleavage was 1.01.

Regarding U20A A22G U130A, the self-cleavage was 1.53.

In the case of U20C U85A U108C, the self-cleavage was determined as 0.16.

On to U20A U52A U100C U119A U143A, for which the self-cleavage was 1.91.

As to U20C U39A C111U U132C, the self-cleavage was found to be 1.74.

With G21U A64G A67G, the self-cleavage amounted to 0.

Regarding U20C G34A U39A U143C, the self-cleavage is 1.

For U20C A64G U73C, the self-cleavage was 0.

On to U20A A94G U115C A141G, for which the self-cleavage worked out at 0.31.

As for U20C U39A A77G C98U U115A A138G A141G, the self-cleavage is 0.36.

As to U20C A65G A140G, the self-cleavage was determined as 0.

Turning to U20A G44A A67G U108C A129G, the self-cleavage worked out at 0.

Take G21A U23C G34A A57U A79U G82A U134C: the self-cleavage was 0.13.

On to U20A A22C A121G, for which the self-cleavage was 0.98.

As for U20G U134C U143C, the self-cleavage came to 1.34.

On to U20C U81A U104G, for which the self-cleavage was found to be 2.02.

U20C G35A U62A: the self-cleavage came to 0.04.

In the case of U20C G54A A136G, the self-cleavage was 1.03.

U20A G40A U130A A140U: the self-cleavage is 1.

Regarding U20C U87A U130C A136G, the self-cleavage came to 0.1.

Regarding G21U U39A U96C C99U, the self-cleavage came to 0.07.

Turning to A22C A59G U81C, the self-cleavage was 0.

With U20C A42U A79G A142G, the self-cleavage is 1.12.

As for U20C U26A A67G, the self-cleavage stood at 0.27.

Regarding U20A U85G A107G, the self-cleavage stood at 0.31.

U20A U47C A65G A142G: the self-cleavage was 0.13.

With U20C G41A U47C G114A U115A, the self-cleavage came out at 1.63.

Consider G21A A64G A138G, for which the self-cleavage stood at 0.2.

Regarding U20C G32C U45C G88A, the self-cleavage was 0.06.

With U20A A69U A117G U119C A124G A138U, the self-cleavage is 0.

Take C19U G35A U47A A142G: the self-cleavage is 1.01.

Consider C19U U109C U112C, for which the self-cleavage was 1.11.

Take U20A U62A G114A: the self-cleavage is 0.04.

With U20A U26C U81C A136G, the self-cleavage turned out to be 2.83.

As for G21A A22U A78G, the self-cleavage turned out to be 1.46.

For the variant U20C U52C A67G, the self-cleavage worked out at 0.88.

As for C19U U39G U132A A138U, the self-cleavage turned out to be 1.25.

U20C G49U C84U U85A U87C A124G: the self-cleavage amounted to 0.03.

With U20C G27U A69U U130A, the self-cleavage was 0.07.

In the case of C19U A42G U85G G97C U130C A136G, the self-cleavage is 0.

With U20C G60A A77G, the self-cleavage was found to be 0.1.

Turning to U20C G60U U73A U85C U115C A142G, the self-cleavage came out at 0.

Regarding U20A A50U A94G A141G G144A, the self-cleavage was 0.14.

For U20C U45A A136G, the self-cleavage was 1.

For U20C A59G U85G U91C U109A, the self-cleavage worked out at 0.

U20A U62C G93A: the self-cleavage came out at 0.03.

Take C19U G49A A79G U109C G114A A124U: the self-cleavage was found to be 0.72.

For the variant U20C U102C A107U A140G U143A, the self-cleavage is 1.53.

On to U20A U26C G53U A57G, for which the self-cleavage stood at 1.04.

C19U A50G U102C: the self-cleavage stood at 1.15.

For the variant U20A G33A A136U, the self-cleavage is 1.01.

For the variant U20C G34A U119A, the self-cleavage was 1.67.

In the case of U20C U46C C84U U102C, the self-cleavage amounted to 0.22.

Take U20A U39C A77U U132C: the self-cleavage stood at 0.97.

With U20C U45G A67U, the self-cleavage was 0.15.

For the variant U20C U62C U104A, the self-cleavage is 0.15.

As to C19U U62A A94G U115A, the self-cleavage turned out to be 0.14.

For the variant U20G A79G U81A, the self-cleavage was 1.33.

As to U20C U47A A129U, the self-cleavage is 1.58.

Regarding U20C U73C U102A U108C A142G, the self-cleavage came out at 0.

On to G21A G105A A129U, for which the self-cleavage is 1.75.

For the variant G21A C37U U39C U45C U62A U100C, the self-cleavage was 0.06.

For the variant U20C G25A U39A A50G A65G, the self-cleavage is 0.

For the variant U20C G27A U104C, the self-cleavage was found to be 0.98.

Take U20C U115A U143C: the self-cleavage turned out to be 1.57.

As to U20C U52A A59G U73A, the self-cleavage was 0.11.

As to U20A A64U U85A U87C U96A A129G, the self-cleavage was 0.

For U20A U46A A94G A141G, the self-cleavage was 0.

For the variant C19U A50U A67G, the self-cleavage stood at 0.18.

In the case of U20C A107G A138G, the self-cleavage came out at 1.53.

Turning to U20A A67G U130C, the self-cleavage was 0.43.

U20C A43U A136U A138G C145U: the self-cleavage was 1.63.

On to U20C G33A U104C A129G A142G, for which the self-cleavage was 1.84.

Regarding U20C G44A G74A U102C, the self-cleavage came to 0.9.

As for U20C A22U C61G A78G A107G, the self-cleavage was found to be 0.11.

Take U20A G49C C116U: the self-cleavage is 1.37.

Regarding U20G U85C G127U, the self-cleavage turned out to be 0.29.

Take C19U U62A A107G: the self-cleavage amounted to 0.08.

Consider G21A A22G A124U, for which the self-cleavage stood at 1.19.

Regarding G21C A117U A129U, the self-cleavage turned out to be 1.3.

With U20G U62A A64U U73A U96A, the self-cleavage came out at 0.05.

U20C G35A A94U A138G: the self-cleavage is 0.22.

As to U20C A59G A67U U112C U134C, the self-cleavage was 0.

For U20C G35A A42G A124U A129G U134C, the self-cleavage is 2.68.

Turning to U20C U45C A136G, the self-cleavage came to 1.29.

G21A A77U U143C: the self-cleavage is 1.17.

In the case of U20C A77G U81C U85A, the self-cleavage came out at 0.

On to U20A A94G U119A, for which the self-cleavage is 0.2.

Regarding C19U U73A A94G U108C A138G, the self-cleavage worked out at 0.28.

Regarding G21A U96C U134A, the self-cleavage came out at 0.26.

In the case of U20C U73C U134C, the self-cleavage is 2.63.

U20C U52C A140G: the self-cleavage is 1.53.

For C19U U29A G70A A121U, the self-cleavage is 0.18.

On to U20C U85A U104C, for which the self-cleavage is 0.15.

As to U20A A78G A136G, the self-cleavage was 1.43.

For U20C U26C U73A, the self-cleavage came out at 1.34.

As to U20A A43G A69U U85G, the self-cleavage was found to be 0.2.

On to U20C A124G A138G, for which the self-cleavage stood at 0.

C19U A136U A142G: the self-cleavage amounted to 1.41.

For the variant U20G U26C C37A U62A A64U U112A C128U, the self-cleavage stood at 0.06.

Regarding C19U U20G A43U U96C, the self-cleavage is 0.26.

As for C19U U62C A69G, the self-cleavage came to 0.05.

Regarding C19U U134C A140U, the self-cleavage was found to be 1.84.

Regarding C19U A42U U87C C113U, the self-cleavage was 0.03.

U20C U73G A78G A107G A141G: the self-cleavage turned out to be 0.92.

U20C U47A A79G U112C A121G U143A: the self-cleavage came out at 1.02.

U20C U26C A50G A77C: the self-cleavage was found to be 2.3.

Regarding U20C A42U U115A, the self-cleavage was found to be 0.82.

For U20C A24U U26A A43U G80A, the self-cleavage came to 1.21.

Consider U20A G40A U47C A67G, for which the self-cleavage is 0.09.

C19U A117G A121U A140G: the self-cleavage turned out to be 1.12.

Take U20A U47C G88A C95U A140G: the self-cleavage amounted to 0.06.

As to U20A C61U A141G, the self-cleavage was found to be 0.05.

As for U20A A42G U87C C99U A141G, the self-cleavage came to 0.29.

Take U20C A69U U73C G97A U109C A129G: the self-cleavage was 0.06.

For U20A U52A A79G A107G U134A, the self-cleavage worked out at 1.02.

Consider U20C U73C C90A, for which the self-cleavage was found to be 0.12.

As to U20C U39A U109C A140U A142G, the self-cleavage was 2.51.

For U20A U23A A129G, the self-cleavage is 1.39.

In the case of U20C U115C C131G A141G, the self-cleavage worked out at 1.15.

As for G21U G32A U45G A94G A107G, the self-cleavage is 0.29.

Consider U20C A65G U115A, for which the self-cleavage came out at 0.

In the case of G21U A31U A59U U62C U109A U143A, the self-cleavage was 0.19.

Take U20C G21A U109C C113A: the self-cleavage amounted to 1.58.

For the variant C19U G54A A77G A141G, the self-cleavage came out at 1.05.

For U20C U47C C146A, the self-cleavage is 0.29.

Consider U20C U46A A124G G125U U130C, for which the self-cleavage worked out at 2.45.

U20A U73C G114A: the self-cleavage is 2.13.

In the case of C19U C66U A94U G97A, the self-cleavage was found to be 0.02.

On to U20C A22U U96A, for which the self-cleavage is 0.06.

On to U20C U73C U115A C120U, for which the self-cleavage came to 2.02.

With U20C G21A U87G, the self-cleavage amounted to 0.13.

Turning to C19U U96A A142C, the self-cleavage was determined as 0.07.

Consider U20C U62C A142G, for which the self-cleavage is 0.09.

As for U20A G36C C68A, the self-cleavage worked out at 0.02.

For the variant U20A A22U A43G U112C, the self-cleavage stood at 0.7.

For the variant G21A U96C A136G, the self-cleavage was 0.38.

For the variant U20A U115C U130C A140G, the self-cleavage amounted to 1.53.

Consider U20G A67G U130C A138G, for which the self-cleavage worked out at 0.

Consider U20C A69U A94U A140U, for which the self-cleavage was found to be 0.03.

As to U20A U52A A140U, the self-cleavage turned out to be 1.09.

For the variant U20A U85C A141U, the self-cleavage turned out to be 0.27.

Regarding U20C U81A A124G, the self-cleavage was 2.13.

As for U20C C71U A138G, the self-cleavage came out at 0.25.

Consider U20C G60A A64G U134C, for which the self-cleavage stood at 0.09.

For U20A A42G U81G, the self-cleavage came out at 1.73.

With U20C U96A A136G, the self-cleavage turned out to be 0.11.

As to U20C A64U U96C U102C G144A, the self-cleavage was determined as 0.4.

Regarding U20C C71U U115C, the self-cleavage was 1.15.

On to G21U A50G A65C A67G, for which the self-cleavage came to 0.

As to U20A G58U U115A, the self-cleavage came out at 0.06.

Turning to U20C A31U U45C G88A, the self-cleavage was found to be 0.

As for U20C A22G G32C A57G, the self-cleavage worked out at 2.04.

Take U20C U26C G44A U81C: the self-cleavage turned out to be 0.17.

Take U20C G34A U39A: the self-cleavage came out at 1.93.

As for C19U U26C A79G, the self-cleavage amounted to 0.88.

C19U A67G U73A A124U: the self-cleavage stood at 0.4.

In the case of U20A U52C U100C U143C, the self-cleavage is 2.38.

Turning to U20C G74A A107G, the self-cleavage came to 1.7.

For the variant U20C A22U C113U, the self-cleavage is 0.63.

For the variant U20C U26C U81C C120A, the self-cleavage is 0.51.

For U20A C71U A117G, the self-cleavage came out at 1.16.

The values above are taken from the RNAGym collection of RNA variant scans (doi:10.7554/elife.90254).
